Measurements published in PubChem BioAssay AID624173 (National Center for Advancing Translational Sciences (NCATS), 2012).
Among all 410,000 compounds or so, about 490 (0.12%) were called active. Inconclusive results, whose numbers are uncertain, are shown with a selection of clear calls. Calls come from the whole dose curve; as a rule, active = well fitted inhibition curve with a large enough effect; inconclusive = small, poorly fitted or top-dose-only effect; inactive = flat fitted curve, though single readings scatter. Where the call is inconclusive, the potency comes from a doubtful curve fit.

molecular target: pyruvate kinase (Trypanosoma brucei) (UniProt Q57TT1); assay: qHTS of Trypanosoma Brucei Inhibitors; settings: TbPYK enzyme, Kinase-Glo Plus ATP luminescence, 45 min; series mostly up to 76.8 µM; note: nearly all actives have a fitted effect of over 50% in size
How it was run: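 ADP (130 uM final) triggers the TbPYK reaction after compound addition; incubation is 45 min at room temperature. Kinase-Glo Plus is then added and luminescence imaged. Normalized data are fitted to concentration-effect curves.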
Potency is the fitted concentration of half-maximal effect; tags give direction and shape of the fitted curve.

Structure (SMILES)	Potency
S=c1[nH]nc(Cn2c(-c3ccccn3)nc3ccccc32)n1-c1ccc2c(c1)OCCO2	active: 15.8 µM
Cc1ccc(N2C(=O)[C@@H]3[C@H](C2=O)[C@H]2C=C(C(=O)c4ccccc4)C=CN2[C@@H]3C(=O)c2ccc(Cl)cc2)cc1	inactive
CC(C)Cn1c(-c2csc3ccccc23)n[nH]c1=S	inconclusive: 3.98 µM [inhibitor, partial curve, poor fit]
Cc1ccc(S(=O)(=O)NNC(=O)C2CCN(S(=O)(=O)c3ccc(C)cc3)CC2)cc1	inconclusive: 7.94 µM [inhibitor, partial curve]
N#Cc1c(NC2CCCCC2)nc(-c2ccco2)c2c1CCCC2	inactive
CC1CCCCC1NC(=S)NC(=O)c1cccs1 (stereo unspecified)	inactive
Cc1[nH]cnc1C(=O)N/N=C/c1c(Cl)cccc1Cl	inconclusive: 31.6 µM [inhibitor, partial curve]
CCCN1C(=O)/C(=C\C=C2/C=CN(CC)c3ccccc32)SC1=S	inconclusive: 14.1 µM [inhibitor, partial curve]
O=C1NC(=O)C(=Cc2ccc(-c3ccc(S(=O)(=O)N4CCOCC4)cc3)o2)C(=O)N1	inconclusive: 8.91 µM [inhibitor, full curve]
COc1cc(C(C2C(=O)CC(C)(C)CC2=O)C2C(=O)CC(C)(C)CC2=O)ccc1O	inconclusive: 25.1 µM [inhibitor, partial curve, poor fit]
O=C1C(c2ccncc2)=C(O)c2ccccc21	inactive
Cc1ccc(C(=O)O/N=C(\N)c2ccccn2)c(C)c1	inconclusive: 12.6 µM [inhibitor, partial curve, poor fit]
O=C(CCc1nc(-c2ccccc2F)no1)NC1CCCCCC1	inactive
Cc1cccc(N=Nc2cnc(N)s2)c1	inactive
O=C(CSc1nnnn1-c1ccccc1Cl)Nc1ccc2c(c1)OCCO2	inactive
O=C(Nc1noc2ccccc12)c1ccc(F)cc1	inconclusive: 22.4 µM [inhibitor, partial curve]
Cc1ccc(/C=C2/NC(=O)N(Cc3ccccc3)C2=O)o1	inconclusive: 35.5 µM [inhibitor, partial curve, poor fit]
CCN(CC)C(=O)CSc1nnc(-c2ccccc2)n1-c1ccccc1	inconclusive: 15.8 µM [inhibitor, partial curve]
Cc1cccc(CC(=O)NC2CCCCCC2)c1	inactive
CCCc1ccc(C(=O)O/N=C(\N)c2ccccn2)cc1	inconclusive: 31.6 µM [inhibitor, partial curve, poor fit]
COc1ccc(-c2ccc(C(=S)N3CCN(C(C)=O)CC3)o2)cc1	inconclusive: 35.5 µM [inhibitor, partial curve, poor fit]
O=C1NC(c2cccs2)Nc2sc3c(c21)CCCC3 (stereo unspecified)	inconclusive: 35.5 µM [inhibitor, partial curve, poor fit]
O=C(Cc1sc(Nc2ccccc2)nc1-c1ccccc1)NCc1ccccn1	inconclusive: 25.1 µM [inhibitor, partial curve]
CCOc1ccc(-c2csc(N)c2C(=O)OC)cc1	inconclusive: 14.1 µM [inhibitor, partial curve, poor fit]

Structure (SMILES)	Potency
COc1ccc(S(=O)(=O)Nc2ccc3c(c2)CCC3)cc1	inconclusive: 28.2 µM [inhibitor, single point]
FC(F)(F)Oc1ccc(Nc2nc(N3CCOCC3)nc(N3CCOCC3)n2)cc1	inconclusive: 39.8 µM [inhibitor, partial curve, poor fit]
CNc1ccc2nc3ccccc3[n+](C)c2c1	inconclusive: 22.4 µM [inhibitor, partial curve]
CCc1cccc(NC(=O)c2nc(-c3ccncc3)no2)c1	inactive
Cc1ccc(-n2c(C)cc(C(=O)CSc3nnc4ccccn34)c2C)cc1	inconclusive: 22.4 µM [inhibitor, partial curve]
CC(=O)N1CC[n+]2c(-c3ccc(Cl)cc3)csc21	inconclusive: 5.62 µM [inhibitor, partial curve]
CC1(CCc2ccc3c(c2)OCO3)NC(=O)c2ccccc2N1 (stereo unspecified)	inconclusive: 50.1 µM [inhibitor, single point]
C=CCN1C=C/C(=C\C=C(C#N)C#N)c2ccccc21	inconclusive: 20 µM [inhibitor, partial curve, poor fit]
Cc1cc(Nc2cnc3ccccc3n2)n(-c2ccccc2)n1	inactive
O=P(c1ccccc1)(c1ccccc1)c1ccccc1C(Br)Br	inconclusive: 35.5 µM [inhibitor, partial curve, poor fit]
C=CCn1c(=S)[nH]c2sccc2c1=O	inconclusive: 39.8 µM [inhibitor, single point]
O=C(Nc1nc2cc3c(cc2s1)OCO3)C1=COCCO1	inconclusive: 31.6 µM [inhibitor, single point]
CCOC(=O)CC1C(=O)NCCN1C(=S)NC(=O)c1ccc(C)c(Br)c1 (stereo unspecified)	inconclusive: 35.5 µM [inhibitor, partial curve]
COc1ccc(CCNC(=O)C2CC(c3cccc([N+](=O)[O-])c3)=NO2)cc1 (stereo unspecified)	inactive
CC(C)CCN1C(=O)C2(OCCCO2)c2cc(Cl)ccc21	inactive
COc1ccc(N2C(=O)/C(=C/C=C/c3ccccc3[N+](=O)[O-])C(=O)NC2=S)cc1	active: 20 µM
Cc1cc(C)c(C(N)=O)c(NCCc2ccccc2)n1	inconclusive: 50.1 µM [inhibitor, single point]
Cc1onc(-c2c(F)cccc2Cl)c1C(=O)N1CCCc2ccccc21	active: 7.08 µM
CC1=NOC(=O)/C1=C\c1ccc(-c2ccccc2Br)o1	inconclusive: 39.8 µM [inhibitor, partial curve, poor fit]
Cn1c(C(=O)OC(C(=O)NC2CCCCC2)c2ccccn2)cc2sccc21 (stereo unspecified)	inconclusive: 28.2 µM [inhibitor, single point]
O=C(NC(=S)NNC(=O)c1ccccc1O)c1ccco1	inconclusive: 35.5 µM [inhibitor, partial curve, poor fit]
CSc1ccccc1OCc1cc(C(=O)NC2CCc3ccccc32)no1 (stereo unspecified)	inactive
Cc1ccc(/C=C2\SC(=S)N(CCCC(=O)Nc3ccccn3)C2=O)cc1	inactive
CCC1CN(C(=O)Nc2cc(C)cc(C)c2)c2ccccc2O1 (stereo unspecified)	inactive

Structure (SMILES)	Potency
COc1ccc(CCNC(=O)CCCCn2c(=O)c3ccccc3n(Cc3ccc(F)cc3Cl)c2=O)cc1OC	inactive
O=C1NC(=O)N(c2ccc3c(c2)OCO3)C(=O)/C1=C\c1ccc(-c2ccccc2C(=O)O)o1	inconclusive: 28.2 µM [inhibitor, partial curve]
O=C(Cn1cc(Cl)ccc1=O)c1ccc(Cl)cc1	inactive
COc1ncnc2sc(-c3ccccc3)cc12	inconclusive: 35.5 µM [inhibitor, partial curve, poor fit]
CCOC(=O)C(C(=O)OCC)C(C(=O)OCC)N1CCOCC1 (stereo unspecified)	inconclusive: 25.1 µM [inhibitor, partial curve]
O=c1[nH]sc2cc(F)ccc12	inconclusive: 31.6 µM [inhibitor, partial curve, poor fit]
Cc1c(NC(=O)C(C)OC(=O)Cc2ccccc2)c(=O)n(-c2ccccc2)n1C (stereo unspecified)	inconclusive: 50.1 µM [inhibitor, single point]
O=C(CC1SC2=NCCN2C1=O)Nc1ccc(Cl)cc1 (stereo unspecified)	inactive
Cc1cccc(-n2c(CCn3nc(C)c([N+](=O)[O-])c3C)n[nH]c2=S)c1	active: 8.91 µM
O=C(Cn1nc(-c2ccco2)ccc1=O)Nc1ccc(Cl)c(Cl)c1	inconclusive: 35.5 µM [inhibitor, partial curve, poor fit]
Cc1cccc(-n2c(=O)c3ccccc3n3c(=S)[nH]nc23)c1C	inconclusive: 7.08 µM [inhibitor, partial curve]
CC(c1ccccc1)n1c(Cn2ncc3ccccc3c2=O)n[nH]c1=S (stereo unspecified)	inconclusive: 15.8 µM [inhibitor, partial curve]
Cn1c(N=NC(=O)c2ccccc2)c(O)c2ccccc21	inconclusive: 50.1 µM [inhibitor, single point]
CCCCOC(=O)CNc1nnc(SCC(=O)OCC)[nH]c1=O	inconclusive: 14.1 µM [inhibitor, partial curve, poor fit]
S=c1[nH]nc(-c2ccc3ncccc3c2)n1-c1ccc2c(c1)OCCO2	active: 3.55 µM
COc1cccc(-n2cc(-c3ccc(F)cc3)[nH]c2=S)c1	inconclusive: 2.51 µM [inhibitor, full curve]
Cc1cc(=O)oc2cc(OCC(=O)N3c4ccccc4CC3C)ccc12 (stereo unspecified)	inactive
CC(C)OC(=O)c1cn(-c2ccccc2)nc1-c1ccco1	inconclusive: 35.5 µM [inhibitor, single point]
Cc1[nH]n(-c2ccccc2)c(=S)c1C=Nc1cccc([N+](=O)[O-])c1	active: 3.16 µM
Nn1c(SCC(=O)Nc2cccnc2Cl)nnc1-c1ccccc1	inconclusive: 10 µM [inhibitor, partial curve, poor fit]
CCn1c(-c2ccc(F)cc2)n[nH]c1=S	inconclusive: 17.8 µM [inhibitor, partial curve, poor fit]
c1ccn2cc(-c3ccc4c(c3)OCCO4)nc2c1	inconclusive: 28.2 µM [inhibitor, single point]
Cc1cc(=O)c2c(o1)C(=O)c1occc1C2=O	inconclusive: 35.5 µM [inhibitor, partial curve, poor fit]
